{"source": "PubChem BioAssay AID1814", "about": "(Broad Institute, 2009)", "note": "Out of some 300,000 compounds screened, about 22,000 (7.3%) were called active. The inconclusive results got no clear call from the source; some entries with a clear call stand among them for comparison. Cut-off read from the data, not from the text of the source: active = activity score below about -60%; inconclusive = mostly about -28% to -61%; inactive = positive scores."}
{"assay": "Activators via SNCA 5'UTR binding, MLPCN (AID 1814)", "conditions": "alpha-synuclein 5'UTR reporter, activators screen; hits give low values; tested at 7.5 µM"}
{"compound": "CCOc1ccc(C(=O)Oc2ccc(NC(C)=O)cc2)cc1", "activity score": "inactive: 79.9%"}
{"compound": "Cn1nc(C(F)(F)F)cc1-c1ccc(/C=C(\\C#N)C(=O)c2ccccc2)s1", "activity score": "inconclusive: -54.9%"}
{"compound": "C/C(=N\\NC(=O)c1ccccc1)c1ccc(-n2ccnc2)cc1", "activity score": "inconclusive: -55.1%"}
{"compound": "CCOc1ccc(NC(=S)N/N=C(\\C)Cc2ccc(OC)cc2)cc1", "activity score": "inconclusive: -45.2%"}
{"compound": "CCOc1ccc(/C=C/C(=O)Nc2ccc(OC)cc2[N+](=O)[O-])cc1", "activity score": "inconclusive: -40%"}
{"compound": "O=C(Cc1ccccc1)NNC(=S)NC(=O)c1cccs1", "activity score": "inactive: 75.4%"}
{"compound": "O=C(/C=C/c1c(Cl)cccc1Cl)n1cccn1", "activity score": "inconclusive: -53.2%"}
{"compound": "CS(=O)(=O)N1CCc2cc(C(=O)Nc3cccc([N+](=O)[O-])c3)ccc21", "activity score": "inconclusive: -53.7%"}
{"compound": "O=C1CN(C(=O)COc2ccc(F)cc2Br)c2ccccc2N1", "activity score": "inconclusive: -46.8%"}
{"compound": "O=C(Nc1ccc(NC(=O)c2cccc([N+](=O)[O-])c2)cc1)c1cccc([N+](=O)[O-])c1", "activity score": "inconclusive: -55.7%"}
{"compound": "Cc1cc(C(=O)CSc2nnnn2C)c(C)n1-c1cccc(F)c1", "activity score": "active: -131%"}
{"compound": "COC(=O)c1[nH]c2c(c1C)C(=O)CC(c1cccs1)C2", "note": "(stereo not given)", "activity score": "inactive: 84.6%"}
{"compound": "c1coc(Cn2c(-c3ccco3)nc3ccccc32)c1", "activity score": "inconclusive: -52.5%"}
{"compound": "COC(=O)N/N=C\\c1c(C)nn(-c2ccccc2)c1Cl", "activity score": "inconclusive: -54%"}
{"compound": "CCCCNC(=O)Nc1cc(C(F)(F)F)c[nH]c1=O", "activity score": "inconclusive: -33.7%"}
{"compound": "COc1ccc(NC(=O)c2cc(C)n(Cc3cccs3)c2C)cc1", "activity score": "inconclusive: -53.1%"}
{"compound": "O=C(Nc1cccc([N+](=O)[O-])c1)c1ccc(-c2ccccc2)cc1", "activity score": "inconclusive: -37.7%"}
{"compound": "CN(C)c1ccnc(N(Cc2ccccc2)Cc2ccccc2)c1C#N", "activity score": "inconclusive: -46.8%"}
{"compound": "Cc1cc(C)cc(C(=O)N2CC(=O)Nc3ccccc32)c1", "activity score": "inactive: 110%"}
{"compound": "Cc1cccc2cc(C#N)c(SCc3nnc(-c4ccccc4[N+](=O)[O-])o3)nc12", "activity score": "active: -87.2%"}
{"compound": "Cc1cccc(NC(=O)c2c(O)c3ccccc3[nH]c2=O)c1", "activity score": "inconclusive: -60.5%"}
{"compound": "C/C(CC(=O)Nc1ccc(N(C)C)cc1)=N\\NC(=O)c1ccc(Cl)cc1Cl", "activity score": "inconclusive: -58.1%"}
{"compound": "O=C(Nc1cccc2cccnc12)c1cccc([N+](=O)[O-])c1", "activity score": "inconclusive: -59.5%"}
{"compound": "Cc1ccccc1N1C(=O)CC(N(O)c2ccccc2)C1=O", "note": "(stereo not given)", "activity score": "inconclusive: -35.9%"}
{"compound": "O=C(Nc1cc(-c2ccccc2)[nH]n1)c1ccccc1F", "activity score": "active: -207%"}
{"compound": "CCN(CC)CCCN1C(=O)C(=O)/C(=C(/O)c2ccc(OC)cc2)C1c1ccco1", "note": "(stereo not given)", "activity score": "inconclusive: -58.3%"}
{"compound": "Cc1cc(C(=O)Nc2ccc(Cl)cc2)c(C)n1-c1ccccc1", "activity score": "inactive: 86.6%"}
{"compound": "Cc1ccccc1/C=N/Nc1ccc(Cl)nn1", "activity score": "inconclusive: -48.3%"}
{"compound": "CCOC(O)[C@H]1N[C@@H](c2ccc(Cl)cc2)[C@@H]([N+](=O)[O-])[C@@H]1c1ccccc1", "note": "(stereo not given in full)", "activity score": "inconclusive: -59.3%"}
{"compound": "CC1CCc2c(sc(NC(=O)CSc3ncn[nH]3)c2C#N)C1", "note": "(stereo not given)", "activity score": "inactive: 90.5%"}
{"compound": "C=C1C(=O)O[C@@H]2C[C@@H](C)[C@@H]3C=CC(=O)[C@@]3(C)[C@@H](OC(C)=O)[C@H]12", "activity score": "inactive: 95.4%"}
{"compound": "CC1(C)N=C(N)N=C(N)N1c1ccc(OCCCOc2ccccc2)c(Cl)c1", "activity score": "inactive: 78.3%"}
{"compound": "COc1ccc(OC)c(-n2cc3c(=O)n(C)c(=O)n(C)c3c2)c1", "activity score": "inconclusive: -54.7%"}
{"compound": "O=C(Nc1ccc(NC(=O)C2CC2)nc1)c1cccs1", "activity score": "active: -95.7%"}
{"compound": "COc1ccccc1-n1cnc2cc(NCc3ccco3)ccc21", "activity score": "inactive: 53.2%"}
{"compound": "COc1ccc2nc(/N=C/c3c(C)[nH]n(-c4ccc(C)cc4C)c3=O)sc2c1", "activity score": "inconclusive: -52.4%"}
{"compound": "CCS(=O)(=O)Nc1ccc2[nH]c(=O)[nH]c2c1", "activity score": "inconclusive: -47.4%"}
{"compound": "Cn1cnc([N+](=O)[O-])c1Sc1ccc(Br)cc1", "activity score": "inconclusive: -35.9%"}
{"compound": "O=C(NCCc1ccc([N+](=O)[O-])cc1)c1ccccc1", "activity score": "inconclusive: -54%"}
{"compound": "COc1cc(C(C)=O)ccc1Oc1ncnc2c1cnn2-c1ccc(F)cc1", "activity score": "inconclusive: -49%"}
{"compound": "Cc1cc2nc(C3CCN(Cc4nnnn4Cc4cccs4)CC3)[nH]c2cc1C", "activity score": "inactive: 63%"}
{"compound": "COc1cc2c(cc1OC)CN(c1ccc(F)cc1[N+](=O)[O-])CC2", "activity score": "active: -79%"}
{"compound": "O=C(O)Cn1c(-c2ccccn2)nc2ccccc21", "activity score": "inconclusive: -50.7%"}
{"compound": "CCCCNC(=O)c1c(N)n(/N=C/c2ccccn2)c2nc3ccccc3nc12", "activity score": "inconclusive: -60.1%"}
{"compound": "Brc1ccc(-c2csc(N/N=C/c3ccc4c(c3)OCO4)n2)cc1", "activity score": "inconclusive: -59.4%"}
{"compound": "O=C(Cn1cc(SCc2ccccc2Cl)c2ccccc21)N1CCOCC1", "activity score": "active: -163%"}
{"compound": "COc1cccc(-c2cc(=O)c3cc(NC(=O)c4ccccc4)ccc3[nH]2)c1", "activity score": "inactive: 81.8%"}
{"compound": "Cc1cc(/C=C2/C(=N)N3C(=NC2=O)SN=C3S(C)(=O)=O)c(C)n1-c1ccccc1", "activity score": "inconclusive: -61.3%"}
{"compound": "COc1ccc(Sc2cnn(-c3ccccc3)c(=O)c2Cl)cc1", "activity score": "active: -73.4%"}
{"compound": "Cc1ccc2c(c1)c1ncn(CCC3=CCCCC3)c(=O)c1n2C", "activity score": "inconclusive: -61.4%"}
{"compound": "CCOc1ccc(NC(=O)c2cc3cc4ccc(C)cc4nc3o2)cc1", "activity score": "inconclusive: -36.5%"}
{"compound": "CCN(CC)Cc1c(O)ccc2c(=O)c(-c3ccccc3)coc12", "activity score": "active: -64.3%"}
{"compound": "CCS(=O)(=O)c1ncc(Cl)c(C(=O)Nc2ccc(S(=O)(=O)N(C)c3ccccc3)cc2)n1", "activity score": "inactive: 78%"}
{"compound": "O=C(COc1ccc(Cl)cc1)N1CCCCC1", "activity score": "inconclusive: -50.8%"}
{"compound": "c1ccc(-n2ncc3c(N4CCC5(CC4)OCCO5)ncnc32)cc1", "activity score": "active: -223%"}
{"compound": "CC(=O)Nc1ccc(NC(=O)c2cc(-c3ccc(C)cc3O)n[nH]2)cc1", "activity score": "inconclusive: -40.6%"}
{"compound": "CCCNC(=O)COc1ccccc1[N+](=O)[O-]", "activity score": "inconclusive: -61.5%"}
{"compound": "O=C(NCC1CCCO1)c1cc2cc(Cl)ccc2[nH]1", "note": "(stereo not given)", "activity score": "inconclusive: -60.4%"}
{"compound": "O=c1[nH][nH]c(C(F)(F)F)c1C=Nc1ccccc1Cl", "activity score": "inconclusive: -58.2%"}
{"compound": "O=C(NNc1ccccc1[N+](=O)[O-])Nc1ccccc1", "activity score": "inconclusive: -54.6%"}
{"compound": "Cc1ccc(C(=O)N/N=C/c2cn(Cc3ccccc3)c3ccccc23)cn1", "activity score": "inactive: 64.3%"}
{"compound": "CN1CCN(C(=O)c2ccc(COc3ccc(Cl)cc3Cl)cc2)CC1", "activity score": "inconclusive: -37.3%"}
{"compound": "CCOc1ccc(-c2ccc(SCC(=O)N3CCOCC3)nn2)cc1", "activity score": "inconclusive: -54.5%"}
{"compound": "Clc1ccc2nc(-c3ccccn3)c(Nc3ccc4c(c3)OCO4)n2c1", "activity score": "inconclusive: -46.6%"}
{"compound": "O=C1/C(=C/Nc2cccc([N+](=O)[O-])c2)CCc2ccccc21", "activity score": "active: -186%"}
{"compound": "Cc1ccc(N=Nc2ccc(O)c3ncccc23)cc1", "activity score": "inactive: 86.2%"}
{"compound": "CCOC(=O)c1sc2nc(NC(=O)C3CCCCC3)sc2c1C", "activity score": "inconclusive: -60.3%"}
{"compound": "Cc1ccc(-n2c([S-])c(C(=O)NC(C)c3ccccc3)[n+]3ccccc23)cc1", "note": "(stereo not given)", "activity score": "inconclusive: -48.8%"}
{"compound": "COc1ccc(C(=O)NCCCCCCNC(=O)c2ccc(OC)cc2)cc1", "activity score": "inconclusive: -60.2%"}
{"compound": "CCOc1ccc(-n2c(C)cc(C(=O)CCl)c2C)cc1", "activity score": "inactive: 111%"}
{"compound": "N#Cc1c2n(c(=S)n(-c3ccccn3)c1=O)CCCCC2", "activity score": "inconclusive: -53.1%"}
{"compound": "CC(=O)c1sc(N/N=C\\c2cccc(Br)c2)nc1C", "activity score": "inconclusive: -58.3%"}
{"compound": "CCOCCCNC(=O)c1ccc2c(c1)N=C(CC)c1cc(Br)ccc1S2", "activity score": "inactive: 88%"}
{"compound": "CC1CCN(c2c(NCc3ccc(C(=O)N4CCc5ccccc54)cc3)c(=O)c2=O)CC1", "activity score": "inactive: 88%"}
{"compound": "CC(C)CCNC(=O)C(=O)NCCC1=CCCCC1", "activity score": "inconclusive: -55.8%"}
{"compound": "CC(=O)Nc1nc(C)c(-c2nc3ccc([N+](=O)[O-])cc3[nH]2)s1", "activity score": "active: -81%"}
{"compound": "Cc1coc(C)c1C(=O)CC1(O)C(=O)N(CCc2ccccc2)c2ccccc21", "note": "(stereo not given)", "activity score": "inconclusive: -47.4%"}
{"compound": "Cc1cc2nc3ccc(=[N+](C)C)cc-3sc2cc1N", "activity score": "inactive: 91.2%"}
{"compound": "C=C[C@@]1(C)CC(=O)[C@]2(O)[C@@]3(C)[C@@H](O)CCC(C)(C)[C@@H]3[C@H](O)[C@H](OC(C)=O)[C@@]2(C)O1", "activity score": "inactive: 72.3%"}
{"compound": "Cc1ccc2cc(CCNC(=O)CC(C)(C)C)c(=O)[nH]c2c1C", "activity score": "inconclusive: -32%"}
{"compound": "CCN(CC)C(=S)SSC(=S)N(CC)CC", "activity score": "inactive: 96.8%"}
{"compound": "CCOC(=O)C1=C(C)N(c2ccccc2)C(=O)C1", "activity score": "inconclusive: -32.4%"}
{"compound": "COc1cc(/C=N/n2cnnc2)ccc1OS(=O)(=O)c1ccccc1[N+](=O)[O-]", "activity score": "active: -178%"}
{"compound": "CN(/N=C/c1cccnc1)c1cnc2ccccc2n1", "activity score": "active: -139%"}
{"compound": "CCc1ccc(NC(=O)c2ccc(S(=O)(=O)NCc3cccnc3)cc2)cc1", "activity score": "inconclusive: -57.4%"}
{"compound": "CCNC(=O)CC1C(=O)N(c2ccc(OC)cc2)C(=O)N1Cc1ccc(OC)cc1", "note": "(stereo not given)", "activity score": "inconclusive: -47.5%"}
{"compound": "CCCCn1c(=N)c(S(=O)(=O)c2ccc(Br)cc2)cc2c(=O)n3cccc(C)c3nc21", "activity score": "inconclusive: -38.9%"}
{"compound": "CCOC(=O)c1[nH]cnc1N=Nc1c(O)ccc2ccccc12", "activity score": "inactive: 90.6%"}
{"compound": "Cc1ccc(NC(=O)c2cccc(NC(=O)/C=C/c3ccco3)c2)cc1C", "activity score": "inconclusive: -45.8%"}
{"compound": "COc1ccc(NC(=O)CSc2nc(N)c3cc4c(nc3n2)CC(C)(C)OC4)cc1", "activity score": "inconclusive: -49.1%"}
